Values quoted from earlier work in patent publication US20240156960A1 (priority 2020, published 2024).

Legend:
[1] = system: coronavirus named in the cell (SARS-CoV2, SARS-CoV1), S protein
SARS-CoV2 = conditions: Protein + Epitope: S; literature source

Molecule | Binds to [1] | Binds to (SARS-CoV2) | Not Neutralising Vs (SARS-CoV1)
8D9 (antibody, listed as Homo sapiens, V domains shown) VH: EVQLLESGGGLVQPGGSLRLSCTASGFTFSSYWMSWVRQAPGKGLEWVANIQQDGSEKYYVDSVKGRFTISRDNAKNSLYLQMNSLRAEDTAVYYCARPTIGYSYGSDYWGQGTTVTVSS VL: [about 100 residues cut from this listing] | SARS-CoV2 | – | –
C009 (antibody, listed as Homo sapiens, V domains shown) VH: [about 100 residues cut from this listing]DSPFSALGASNDYWGQGTLVTVSS VL: QSALTQPPSASGSPGQSVTISCTGTSSDVGGYNYVSWYQQHPGKAPKLMIYEVSKRPSGVPDRFSGSKSGNTASLTVSGLQAEDEAEYYCSSDAGSNNVVFGGGTKLTVL | – | SARS-CoV2 | SARS-CoV1
C008 (antibody, listed as Homo sapiens, V domains shown) VH: EVQLVESGGGVVQPGRSLRLSCAASGFTFSSYGMHWVRQAPGKGLEWVTVISYDGRNKYYADSVKGRFTISRDNSKNTLYLQMNSLRAEDTAVYYCAREFGDPEWYFDYWGQGTLVTVSS VL: [about 100 residues cut from this listing]TFGQGTKVEIK | – | SARS-CoV2 | SARS-CoV1
C004 (antibody, listed as Homo sapiens, V domains shown) VH: [about 100 residues cut from this listing]PASRGYSGYDHGYYYYMDVWGKGTTVTVSS VL: AIRMTQSPSSLSASVGDRVTITCQASQDISNYLNWYQQKPGKAPKLLIYDASNLETGVPSRFSGSGSGTDFTFTISSLQPEDIATYYCQQYDNLPITFGQGTRLEIK | – | SARS-CoV2 | SARS-CoV1
C010 (antibody, listed as Homo sapiens, V domains shown) VH: EVQLVESGGGVVQPGRSLRLSCAASGFTFSSYAMHWVRQAPAKGLEWVAVILYDGSGKYYADSVKGRFTISRDNSKNTLYLQMNSLRAEDTAVYYCARDGIVDTALVTWFDYWGQGTLVTVSS VL: [about 100 residues cut from this listing]PWTFGQGTKVEIK | – | SARS-CoV2 | SARS-CoV1,
